Test results taken from PMC4336329 (PLoS ONE, 2015).
Among all 310,000 compounds or so, about 2,200 (0.71%) showed an effect of 50% or more. The effect is printed as a negative number. This is one part of the list.

Molecular target: human ether-à-go-go-related gene (hERG) potassium channel (human, UniProt Q12809)
Test: primary screen, population patch clamp on CHO cells stably expressing hERG

Sequence of human ether-à-go-go-related gene (hERG) potassium channel (Q12809 whole entry, looked up): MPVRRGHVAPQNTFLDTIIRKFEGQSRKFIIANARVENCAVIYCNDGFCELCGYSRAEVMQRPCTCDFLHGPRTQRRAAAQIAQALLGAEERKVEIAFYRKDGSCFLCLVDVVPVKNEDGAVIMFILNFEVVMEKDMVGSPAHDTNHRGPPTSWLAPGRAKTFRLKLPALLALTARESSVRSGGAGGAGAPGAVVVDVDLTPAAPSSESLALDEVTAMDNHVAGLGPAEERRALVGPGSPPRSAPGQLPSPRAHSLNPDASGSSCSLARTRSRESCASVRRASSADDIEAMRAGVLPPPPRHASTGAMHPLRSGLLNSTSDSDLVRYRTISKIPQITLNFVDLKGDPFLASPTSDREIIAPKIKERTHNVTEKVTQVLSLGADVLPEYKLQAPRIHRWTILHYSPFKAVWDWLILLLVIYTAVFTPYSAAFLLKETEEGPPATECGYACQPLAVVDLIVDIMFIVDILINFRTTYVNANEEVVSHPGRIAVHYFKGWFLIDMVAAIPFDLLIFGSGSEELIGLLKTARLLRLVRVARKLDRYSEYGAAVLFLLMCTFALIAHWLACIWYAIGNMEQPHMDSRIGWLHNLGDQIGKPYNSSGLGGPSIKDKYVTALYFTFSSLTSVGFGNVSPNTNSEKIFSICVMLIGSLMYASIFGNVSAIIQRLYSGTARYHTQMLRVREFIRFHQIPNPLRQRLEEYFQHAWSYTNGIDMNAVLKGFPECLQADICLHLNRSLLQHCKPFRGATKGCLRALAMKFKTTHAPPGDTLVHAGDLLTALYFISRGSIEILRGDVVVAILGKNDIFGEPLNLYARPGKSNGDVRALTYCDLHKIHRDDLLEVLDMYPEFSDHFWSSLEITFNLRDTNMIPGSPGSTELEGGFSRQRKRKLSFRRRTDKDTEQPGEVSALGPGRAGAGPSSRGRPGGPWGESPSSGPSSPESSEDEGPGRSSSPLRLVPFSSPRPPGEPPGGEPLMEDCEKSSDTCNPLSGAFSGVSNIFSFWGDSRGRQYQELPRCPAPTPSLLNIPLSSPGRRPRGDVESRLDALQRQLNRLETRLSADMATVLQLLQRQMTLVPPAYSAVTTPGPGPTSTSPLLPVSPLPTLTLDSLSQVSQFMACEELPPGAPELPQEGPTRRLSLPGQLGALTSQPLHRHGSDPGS

Compound | hERG current change (%, negative = inhibition) at 1uM [%]
COc1ccc(C2c3[nH]c4ccccc4c3C[C@H]3C(=O)N(c4ccccc4C(=O)NCCN4CCOCC4)C(=O)N23)cc1 (some centres unmarked) | -3.64
CC(=O)NC(Cc1ccccc1C)C(=O)NC1CCN(C(=O)c2ccc(C)cc2)CC1 (centres unmarked) | -3.02
OC(CN1CCN(Cc2ccccc2)CC1)c1ccccc1 (centres unmarked) | 0.933
Cc1cc(C)c2c(CC(=O)NCCc3ccccc3)coc2c1 | 14.2
COc1ccc(Cn2c(N)c(S(=O)(=O)c3cccs3)c3nc4ccccc4nc32)cc1 | 2.37
CCCCn1c(N)c(N(CCC(C)C)C(=O)C2CCCC2)c(=O)[nH]c1=O | 9.14
CSc1snnc1-c1ccccc1 | 8.38
Cn1nc(C(F)(F)F)c(-c2ccccc2)c1NC(=O)c1nccnc1C(=O)O | 15.6
CCCCCCSc1cc(-c2nc3cc(C)ccn3c2NC2CCCCC2)ccc1OC.O=C(O)C(F)(F)F | 7.1
Cc1ccc(C)c(Cn2nc(-c3cc(C)ccc3C)ccc2=O)c1 | 13.9
CC(C)NC(=O)c1ccccc1NC(=O)/C=C/c1ccc([N+](=O)[O-])cc1 | -1.61
CC(C)(C)OC(=O)NCCCCCNC(=O)c1[nH]cnc1C(=O)Nc1cccc(Cl)c1 | 12.4
S=C(NCCSCc1ccccc1Cl)Nc1ccccc1 | -6.53
CCCCCn1c(-c2ccco2)nc2nc3ccccc3nc21 | -2.57
COc1ccc(NC(=O)c2cc3c(Cl)nc4ccccc4c3s2)cc1OC | 15.2
Br.Cc1ccccc1OCC(=O)NN1Cc2ccccc2C1=N | 8.9
CC1(c2nnc(-c3cccc(Cl)c3)o2)CC(c2cccnc2)=NO1 (centres unmarked) | 9.7
Cc1csc(NC(=O)CSc2nnc(-c3ccoc3C)n2CCc2ccccc2)n1 | -16.3
CCOC(=O)C1=C(O)CSC1=Nc1ccc(C)cc1 | 3.39
CCC(C)(C)n1nnnc1C(c1cc(OC)c(OC)c(OC)c1)N1CCN(c2ccccc2)CC1 (centres unmarked) | -3.23
Cn1sc(=O)c2cc(S(=O)(=O)NC3CC3)ccc21 | -6.77
Nc1cccc(C#Cc2ccc3c(=O)c4ccccc4oc3c2)c1 | 14

Compound | hERG current change (%, negative = inhibition) at 1uM [%]
CC(=O)N1CCN(CC(=O)Nc2ccccc2C(=O)NCc2ccc(C)cc2)CC1 | -1.17
c1cnc(NCCNc2ncccn2)nc1 | 5.01
NNC(=O)CNc1cccc(Br)c1 | 12.1
COc1ccc(C)cc1S(=O)(=O)N1CCN(C(=O)c2ncoc2-c2cccc(F)c2)CC1 | 16.9
N#Cc1c(NC(=O)C2CC=CCC2C(=O)O)sc2c1CCCCCC2 (centres unmarked) | 11.3
COc1ccc(-n2ncc3c(N4CCN(Cc5ccccc5)CC4)ncnc32)cc1 | 7.99
Cc1scc(C(=O)N/N=C/c2ccc(Cl)s2)c1C | 12.9
CCn1c(=O)c(C(=O)NNS(=O)(=O)c2ccc(Cl)cc2)c(O)c2ccccc21 | 10.1
O=C(Nc1nnc(C2CC2)s1)c1ccco1 | 4.84
CCN(CC)c1ccc(C(=O)N/N=C/c2ccccc2OC(F)F)cc1 | 10.3
COc1ccc(Br)cc1CN1CCCCCC1 | 5.54
O=C(C1CCCC1)N1CCC(CC2CC(c3cccc(Br)c3)=NO2)(C(=O)NCC2CCCCC2)CC1 (centres unmarked) | -5.33
O=C(CN1CCN(S(=O)(=O)c2ccc(Br)cc2)CC1)N/N=C/c1ccc(Cl)c([N+](=O)[O-])c1 | 2.32
COC(=O)c1ccccc1NC(=O)CCC(=O)N1CCSc2ccccc21 | -0.876
O=C(Nc1ccccc1)N1CCc2c([nH]c3ccccc23)C1C(F)(F)F (centres unmarked) | 4.72
CCC1(CC)NC(=O)N(Cc2nc3ccccc3s2)C1=O | 5.36
Cc1ccc2c(c1)nnn2C1CCN(CC(=O)Nc2ccccc2N2CCOCC2)CC1 | -39.2
C=CCOc1cccc(C2/C(=C(/O)c3ccc(Cl)cc3)C(=O)C(=O)N2CCN2CCOCC2)c1 (centres unmarked) | 1.42
Cc1ccc(NC(=O)C2CCN(S(C)(=O)=O)CC2)cc1C | 18.7
COc1cc2[nH]c3c(N4CCN(c5ccc(Cl)cc5)CC4)ncnc3c2cc1OC | -1.81
COC(=O)c1ccccc1NC(=S)NC(NC(=O)c1ccccc1[N+](=O)[O-])C(Cl)(Cl)Cl (centres unmarked) | 5.77
C/C(CC(=O)NCCCN1CCOCC1)=N\NC(=O)COc1ccc(C)cc1 | 16
